Assay results published in the BET-seq Pho4 binding data (Le et al. 2018).
Some of the results follow. Values were computed here from the reads of four pooled replicates and scatter widely.

Target: T1, Pho4 (S. cerevisiae) (UniProt P07270)
T1 sequence: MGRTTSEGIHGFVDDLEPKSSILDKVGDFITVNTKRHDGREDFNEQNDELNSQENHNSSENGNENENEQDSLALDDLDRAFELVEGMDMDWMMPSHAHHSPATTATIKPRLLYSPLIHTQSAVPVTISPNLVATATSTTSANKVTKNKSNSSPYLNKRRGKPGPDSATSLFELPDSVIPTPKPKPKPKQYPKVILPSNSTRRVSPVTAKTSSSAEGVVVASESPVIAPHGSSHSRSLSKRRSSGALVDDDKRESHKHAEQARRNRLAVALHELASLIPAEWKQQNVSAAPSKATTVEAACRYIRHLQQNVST
Assay: relative binding free energy (BET-seq); higher = weaker binding
Settings: reference: library average

For GTTGTCACGTGCTGAA, which “relative binding free energy” value is on record?
Its value is 0.02 kcal/mol.

For TCTTTCACGTGATGGT, which “relative binding free energy” value is on record?
The value was 0.32 kcal/mol.

With GTCTACACGTGGGTGT as the sequence, how does the “relative binding free energy” value read?
Its value is 0.02 kcal/mol.

Which “relative binding free energy” value does the source give for CTTCGCACGTGTGGGG here?
Its value is -0.05 kcal/mol.

For CTGGTCACGTGCAGTG, which “relative binding free energy” value is on record?
Its value is 0.15 kcal/mol.

ACGTGCACGTGGGTAG was tested. Which “relative binding free energy” value did it give?
Its value is -0.13 kcal/mol.

Which “relative binding free energy” value does the source give for GTTATCACGTGTCGGT here?
Its value is 0.23 kcal/mol.

How did the “relative binding free energy” value turn out when AGTGACACGTGTGGGT was run?
Its value is 0.02 kcal/mol.

For TTAGGCACGTGTCATA, which “relative binding free energy” value is on record?
The value was -0.11 kcal/mol.

For TATTACACGTGATTGG, which “relative binding free energy” value is on record?
The value was 0.23 kcal/mol.

With ATTAACACGTGGTGTA as the sequence, how does the “relative binding free energy” value read?
The value was -0.08 kcal/mol.

Which “relative binding free energy” value does the source give for TATTGCACGTGCGTGG here?
The value was -0.1 kcal/mol.

How did the “relative binding free energy” value turn out when GAGTCCACGTGGGCGG was run?
Its value is 0.03 kcal/mol.

With GCTCTCACGTGTTTGT as the sequence, how does the “relative binding free energy” value read?
The value was 0.28 kcal/mol.

For GTGTTCACGTGCAGCG, which “relative binding free energy” value is on record?
Its value is 0.42 kcal/mol.

With TAAATCACGTGGAGAG as the sequence, how does the “relative binding free energy” value read?
Its value is 0.16 kcal/mol.

Which “relative binding free energy” value does the source give for TTTATCACGTGGACTT here?
The value was 0.06 kcal/mol.

For CTTTGCACGTGGGCAA, which “relative binding free energy” value is on record?
Its value is -0.07 kcal/mol.

For AGGTTCACGTGATGAA, which “relative binding free energy” value is on record?
Its value is 0.38 kcal/mol.

Which “relative binding free energy” value does the source give for GTGTGCACGTGCCTGT here?
Its value is 0.06 kcal/mol.

GGAGGCACGTGAGCGG was tested. Which “relative binding free energy” value did it give?
The value was 0.13 kcal/mol.

How did the “relative binding free energy” value turn out when TGGGTCACGTGGTCCA was run?
Its value is 0 kcal/mol.

TTACTCACGTGGGGGT was tested. Which “relative binding free energy” value did it give?
Its value is 0.06 kcal/mol.

Which “relative binding free energy” value does the source give for AAGTGCACGTGGAGGT here?
The value was -0.09 kcal/mol.

For AATCTCACGTGTATGG, which “relative binding free energy” value is on record?
The value was 0.24 kcal/mol.

With TTGGTCACGTGCGTTT as the sequence, how does the “relative binding free energy” value read?
Its value is 0.12 kcal/mol.

With GAAGTCACGTGTGTAT as the sequence, how does the “relative binding free energy” value read?
The value was 0.21 kcal/mol.

ATTTTCACGTGCTTAT was tested. Which “relative binding free energy” value did it give?
The value was 0.2 kcal/mol.

How did the “relative binding free energy” value turn out when GGTGACACGTGTAGTT was run?
Its value is 0.22 kcal/mol.

For AGGTTCACGTGCCGTG, which “relative binding free energy” value is on record?
The value was 0.1 kcal/mol.

How did the “relative binding free energy” value turn out when TAGGCCACGTGGAGGA was run?
Its value is -0.06 kcal/mol.

For GGTTCCACGTGAAGGG, which “relative binding free energy” value is on record?
The value was 0.27 kcal/mol.

TTTTACACGTGTGAGA was tested. Which “relative binding free energy” value did it give?
Its value is 0.16 kcal/mol.

How did the “relative binding free energy” value turn out when CTGGGCACGTGGCAAT was run?
Its value is -0.06 kcal/mol.

For ATGTACACGTGATTAT, which “relative binding free energy” value is on record?
The value was 0.26 kcal/mol.

For GTGGGCACGTGAGATC, which “relative binding free energy” value is on record?
Its value is 0.28 kcal/mol.

TTTTCCACGTGGATGT was tested. Which “relative binding free energy” value did it give?
Its value is 0.02 kcal/mol.

With CTAGTCACGTGGGTGG as the sequence, how does the “relative binding free energy” value read?
Its value is -0.06 kcal/mol.

How did the “relative binding free energy” value turn out when AGTAACACGTGACGTG was run?
The value was 0.03 kcal/mol.

AATGACACGTGTGAGG was tested. Which “relative binding free energy” value did it give?
Its value is 0.12 kcal/mol.

Which “relative binding free energy” value does the source give for GAAGACACGTGGGGTC here?
Its value is -0.03 kcal/mol.

For TAGATCACGTGCTAGT, which “relative binding free energy” value is on record?
The value was 0.07 kcal/mol.

TGCGGCACGTGCGGAG was tested. Which “relative binding free energy” value did it give?
The value was -0.25 kcal/mol.

With AAGGGCACGTGAGTGG as the sequence, how does the “relative binding free energy” value read?
Its value is 0.07 kcal/mol.

How did the “relative binding free energy” value turn out when AACGACACGTGAGTGG was run?
The value was 0.27 kcal/mol.

TATAGCACGTGGGGTC was tested. Which “relative binding free energy” value did it give?
Its value is -0.12 kcal/mol.

With GTTTGCACGTGGCTAT as the sequence, how does the “relative binding free energy” value read?
Its value is -0.01 kcal/mol.

Which “relative binding free energy” value does the source give for ATTTTCACGTGTACGT here?
The value was 0.26 kcal/mol.

TTTTTCACGTGGCGCG was tested. Which “relative binding free energy” value did it give?
Its value is 0.03 kcal/mol.

For GGGCTCACGTGGGTCT, which “relative binding free energy” value is on record?
The value was 0.31 kcal/mol.

With TGTTCCACGTGACGGT as the sequence, how does the “relative binding free energy” value read?
Its value is 0.13 kcal/mol.

TGGCTCACGTGTTGGC was tested. Which “relative binding free energy” value did it give?
Its value is 0.21 kcal/mol.

CGTATCACGTGGTTGC was tested. Which “relative binding free energy” value did it give?
Its value is 0.03 kcal/mol.

For TCATGCACGTGTACGG, which “relative binding free energy” value is on record?
Its value is 0.12 kcal/mol.

CGGGTCACGTGATTAT was tested. Which “relative binding free energy” value did it give?
The value was 0.2 kcal/mol.

GTTTGCACGTGTGCTA was tested. Which “relative binding free energy” value did it give?
Its value is 0 kcal/mol.

ATGGCCACGTGTATGG was tested. Which “relative binding free energy” value did it give?
Its value is 0.01 kcal/mol.

For TTGATCACGTGGGCCT, which “relative binding free energy” value is on record?
The value was 0.08 kcal/mol.

Which “relative binding free energy” value does the source give for CGCTGCACGTGAGAGG here?
Its value is 0.29 kcal/mol.

With GGGGGCACGTGGAGGA as the sequence, how does the “relative binding free energy” value read?
Its value is -0.15 kcal/mol.

GTTTGCACGTGGAGAG was tested. Which “relative binding free energy” value did it give?
The value was 0.19 kcal/mol.

TAATTCACGTGGATCT was tested. Which “relative binding free energy” value did it give?
The value was 0.29 kcal/mol.

TGTGTCACGTGGCTCT was tested. Which “relative binding free energy” value did it give?
Its value is -0.06 kcal/mol.

ATGTACACGTGTTGAG was tested. Which “relative binding free energy” value did it give?
Its value is -0.03 kcal/mol.

AGCTTCACGTGTGAGG was tested. Which “relative binding free energy” value did it give?
Its value is 0.32 kcal/mol.

GCGGCCACGTGGGTGC was tested. Which “relative binding free energy” value did it give?
Its value is -0.11 kcal/mol.

How did the “relative binding free energy” value turn out when TTTGTCACGTGCGAGT was run?
Its value is 0.2 kcal/mol.

How did the “relative binding free energy” value turn out when GAAAACACGTGTGTTG was run?
The value was 0.02 kcal/mol.

How did the “relative binding free energy” value turn out when GTGTGCACGTGGTGTC was run?
Its value is 0.04 kcal/mol.

How did the “relative binding free energy” value turn out when ACTTTCACGTGATGTT was run?
Its value is 0.23 kcal/mol.

For AGTAGCACGTGCTGCG, which “relative binding free energy” value is on record?
The value was -0.06 kcal/mol.

Which “relative binding free energy” value does the source give for AAGTACACGTGGATGG here?
Its value is 0.12 kcal/mol.

How did the “relative binding free energy” value turn out when CGGGACACGTGTGTAG was run?
The value was -0.02 kcal/mol.

Which “relative binding free energy” value does the source give for TTGCGCACGTGCGTGG here?
Its value is -0.29 kcal/mol.

GTGCTCACGTGTTTGG was tested. Which “relative binding free energy” value did it give?
Its value is 0.28 kcal/mol.

For AATAACACGTGTGTAT, which “relative binding free energy” value is on record?
Its value is 0.06 kcal/mol.

GTTATCACGTGAAAAT was tested. Which “relative binding free energy” value did it give?
The value was 0.53 kcal/mol.

With TGCTTCACGTGGATGT as the sequence, how does the “relative binding free energy” value read?
The value was 0.11 kcal/mol.

For TTTAGCACGTGGCGGG, which “relative binding free energy” value is on record?
Its value is -0.16 kcal/mol.

How did the “relative binding free energy” value turn out when AAGTTCACGTGCGATG was run?
The value was 0.19 kcal/mol.

For GCCGACACGTGGGTGG, which “relative binding free energy” value is on record?
Its value is 0.03 kcal/mol.

With GGTTACACGTGAGTCG as the sequence, how does the “relative binding free energy” value read?
The value was 0.32 kcal/mol.

For TTAAACACGTGGTGAG, which “relative binding free energy” value is on record?
Its value is -0.02 kcal/mol.

With GATCTCACGTGGGTGT as the sequence, how does the “relative binding free energy” value read?
Its value is 0.06 kcal/mol.

How did the “relative binding free energy” value turn out when ACAGCCACGTGTGGGG was run?
The value was 0 kcal/mol.

CGAAACACGTGGTGTA was tested. Which “relative binding free energy” value did it give?
Its value is -0.05 kcal/mol.

Which “relative binding free energy” value does the source give for TAGGCCACGTGAAGGG here?
The value was 0.15 kcal/mol.

With GGTAGCACGTGACGTT as the sequence, how does the “relative binding free energy” value read?
The value was 0.09 kcal/mol.

How did the “relative binding free energy” value turn out when TGGTGCACGTGATCGA was run?
The value was 0.09 kcal/mol.

With CTAGACACGTGCTGGG as the sequence, how does the “relative binding free energy” value read?
Its value is 0.08 kcal/mol.

How did the “relative binding free energy” value turn out when GTGAGCACGTGTTACG was run?
Its value is -0.02 kcal/mol.

How did the “relative binding free energy” value turn out when CGTATCACGTGTATGA was run?
Its value is 0.17 kcal/mol.

With GCGAGCACGTGGGATT as the sequence, how does the “relative binding free energy” value read?
The value was 0.06 kcal/mol.

Which “relative binding free energy” value does the source give for GTGTGCACGTGTGTGG here?
The value was 0.1 kcal/mol.

Which “relative binding free energy” value does the source give for AAGTGCACGTGCGTAG here?
Its value is -0.05 kcal/mol.

How did the “relative binding free energy” value turn out when AGTTGCACGTGGAGCA was run?
Its value is -0.05 kcal/mol.

AGTTTCACGTGTAGAA was tested. Which “relative binding free energy” value did it give?
The value was 0.3 kcal/mol.

GTGGTCACGTGGGTAA was tested. Which “relative binding free energy” value did it give?
The value was 0.03 kcal/mol.

TGGCGCACGTGTATTG was tested. Which “relative binding free energy” value did it give?
The value was -0.08 kcal/mol.

For CAGGGCACGTGTTGTC, which “relative binding free energy” value is on record?
Its value is 0.04 kcal/mol.

How did the “relative binding free energy” value turn out when TGGCTCACGTGAGAAG was run?
Its value is 0.53 kcal/mol.

Which “relative binding free energy” value does the source give for CGTTTCACGTGAGTTA here?
The value was 0.21 kcal/mol.

GTCACCACGTGGGGGG was tested. Which “relative binding free energy” value did it give?
The value was -0.11 kcal/mol.

TGCTACACGTGTGAGG was tested. Which “relative binding free energy” value did it give?
The value was 0.13 kcal/mol.

Which “relative binding free energy” value does the source give for TTGCGCACGTGTTTTA here?
Its value is -0.2 kcal/mol.

Which “relative binding free energy” value does the source give for TTCGTCACGTGGAGGA here?
Its value is 0.09 kcal/mol.

TTCGTCACGTGTAGGA was tested. Which “relative binding free energy” value did it give?
Its value is 0.28 kcal/mol.

With TATGACACGTGGTATG as the sequence, how does the “relative binding free energy” value read?
Its value is -0.08 kcal/mol.

GGGTACACGTGTAATT was tested. Which “relative binding free energy” value did it give?
The value was 0.17 kcal/mol.

How did the “relative binding free energy” value turn out when GTCATCACGTGGTGGC was run?
The value was 0.07 kcal/mol.

With GGGTGCACGTGAAAAG as the sequence, how does the “relative binding free energy” value read?
Its value is 0.22 kcal/mol.

For GATTGCACGTGGTGAT, which “relative binding free energy” value is on record?
The value was 0.12 kcal/mol.

For TAGGGCACGTGGTGCA, which “relative binding free energy” value is on record?
Its value is -0.18 kcal/mol.

Which “relative binding free energy” value does the source give for TGGTGCACGTGCTGTC here?
Its value is -0.05 kcal/mol.

For GCGGTCACGTGTTAGG, which “relative binding free energy” value is on record?
Its value is 0.28 kcal/mol.
